From PubChem BioAssay AID1347073 (National Center for Advancing Translational Sciences (NCATS), 2019)
The whole screen tested about 45,000 compounds, of which about 200 (0.44%) were called active. About 7% were inconclusive and are not listed. Calls come from the whole dose curve; as a rule, active = well fitted activation curve with a large enough effect; inconclusive = small, poorly fitted or top-dose-only effect; inactive = no such curve, though single readings can be large or run the other way. This is one part of the list.

test: qHTS of TDP-43 Inhibitors: NCGC Sytravon Library Screen; conditions: yeast TDP-43 toxicity rescue, BacTiter-Glo growth, 24 h; series mostly up to 46.1 µM; growth rescue (activation): at the top concentration; note: 0% is about no effect; nearly all actives have a fitted effect of over 55% in size
From the text: The goal of this project is to identify new chemical probes capable of reversing the toxicity associated with TDP-43 which is associated with frontotemporal lobar degeneration and amyotrophic lateral sclerosis. These compounds will provide a complementary approach to deciphering the tangled mechanisms of toxicity and protection that we have uncovered through genome-wide genetic screens and are beginning to uncover in a large-scale proteomics analysis with mass spectroscopy. To this end, a miniaturized assay was developed to be screened against the Molecular Libraries Small Molecule Repository (MLSMR) to discover TDP-43 inhibitors. Please note that in the set-up this yeast-based assay compounds that inhibit as TDP-43, have a read-out as activators. NIH Chemical Genomics Center [NCGC] NIH Molecular Libraries Probe Centers Network [MLPCN] Assay Submitter (PI): Susan Lindquist, Whitehead Institute/MIT MLPCN Grant: R21 NS060957
Dispense 2.5 microL yeast galactose medium per 1536-well plate, pin compound, dispense 2.5 microL TDP-43 expressing yeast in galactose medium at OD600=0.02 (pregrown in raffinose medium to mid-log phase) per well, incubate for 24 hr at 30 deg C, and cell growth will be measured using 5 microL of Bactiter/Glo reagent to entire plate and read using Luminescence Protocol in ViewLux.

Compound | growth rescue (activation)
CCCNS(=O)(=O)c1cc2c(cc1Br)CCN2C(=O)CC | inactive: 0.283%
COc1ccc(CN(CC(=O)NCC2CCCO2)C(=O)CNS(=O)(=O)c2ccccc2)cc1 (configuration not stated) | inactive: 5.37%
Cc1cccc(OCCCC(=O)Nc2ccc(S(N)(=O)=O)cc2)c1C | inactive: 6.31%
Cc1ccccc1C1c2[nH]c3ccccc3c2C[C@H]2C(=O)N(C3CC3)CC(=O)N12 (some centres not stated) | inactive: 1.42%
CC(=O)NS(=O)(=O)c1ccc(NC(=O)CSc2ccc(Cl)cc2)cc1 | inactive: -3.86%
Cc1ccc(Cn2c(O)c(N=NC(=S)Nc3ccccc3F)c3ccccc32)cc1 | inactive: 16.3%
O=C1CCCN2N=C(SCC(=O)Nc3ccc(F)cc3F)SC2=N1 | inactive: 14.9%
COc1cccc(NC(=O)Nc2ccccc2Br)c1 | inactive: 4.77%
C=CC[n+]1c(-c2ccc(C)cc2)csc1Nc1ccc(NC(C)=O)cc1 | inactive: 16.8%
COc1cc(/C=N/n2c(-c3cc(C)[nH]n3)n[nH]c2=S)cc(OC)c1O | inactive: -2.08%
CC(/C=C/c1ccco1)=N\NC(=O)c1cc(Cl)ccc1O | inactive: 4.68%
COc1ccc(CNC(=O)CN(C(=O)c2csnn2)c2cccc3ccccc23)cc1 | inactive: 8.81%
CCOC(=O)c1ccc(NC(=O)c2cccc(S(=O)(=O)N3CCN(C(C)=O)CC3)c2)cc1 | inactive: 3.69%
Cc1noc(C)c1COC(=O)c1cc(S(=O)(=O)N2CCOCC2)ccc1Cl | inactive: -3.51%
O=C(NN(C(=O)c1ccccc1)c1ccccc1)c1ccccc1 | inactive: 22.4%
NC1=NC(=O)/C(=C\c2cccnc2)S1 | inactive: -12.2%
O=C(O)c1cccc(Cn2c(Cl)c(/C=N/NC(=O)c3cccc(O)c3)sc2=O)c1 | inactive: 5.71%
CC(c1ccccc1)N1CCC(CNC(=S)Nc2cccc(Cl)c2)C1 (configuration not stated) | inactive: 1.2%
Cc1cc(C)c2c(CN3CCCCC3)cc(=O)oc2c1 | inactive: -1.02%
Cc1ccccc1C(=O)NNC(=O)C1CCN(c2ncccn2)CC1 | inactive: 0.889%
NC(c1ccccc1)c1cccnc1 (configuration not stated) | inactive: 2.65%
Cc1sc2nc(COC(=O)c3cccc(OC(F)F)c3)[nH]c(=O)c2c1C | inactive: 20.8%
COC(CNC(=O)c1ccc2c(c1)ncn2-c1cccc(C)c1)OC | inactive: 11.9%
Cc1occc1C(=O)N/N=C/c1ccc(-c2ccccc2)cc1 | inactive: -45.9%
CCN(CC)S(=O)(=O)c1ccc(C(=O)NCCN2C(=O)S/C(=C\c3cccnc3)C2=O)cc1 | inactive: -1.35%
CCC(C)NS(=O)(=O)c1ccc(N)cc1 (configuration not stated) | inactive: -2.62%

Compound | growth rescue (activation)
Cc1onc(-c2ccccc2Cl)c1C(=O)NNC(=O)c1ccc(F)cc1 | inactive: -2.8%
Cc1noc(NS(=O)(=O)c2ccc(NC(=O)COc3ccc(C#N)cc3)cc2)c1C | inactive: 16.5%
CC1(c2ccccc2Cl)NC(=O)N(CC(=O)Nc2ccccc2OC(F)F)C1=O (configuration not stated) | inactive: 0.129%
O=C(c1ccco1)N1CCN(CCCCOc2ccc(F)cc2)CC1 | inactive: 15.9%
Cc1ccc2nc(NC(=O)C3CC(=O)N(Cc4ccco4)C3)sc2c1 (configuration not stated) | inactive: -9.08%
Cn1ncc2c1ncn1nc(COc3ccc4ccccc4c3)nc21 | inactive: 8.13%
OC(c1cccc(Cl)c1)c1ncc(-c2cccc(C(F)(F)F)c2)[nH]1 (configuration not stated) | inactive: 10.1%
CCn1cc(C(=O)NCCCN2CCN(C)CC2)c(=O)c2cc(S(=O)(=O)N3CCc4ccccc4C3)ccc21 | inactive: -7.99%
O=C(O)c1cccc2c1C(=O)N(c1ccccc1)C2 | inactive: -32.1%
O=C(COC(=O)c1cccs1)NCc1cccs1 | inactive: -2.87%
C=CCOc1ccccc1CN1CCC(Oc2ccc(C(=O)N3CCCCC3)cc2)CC1 | inactive: 11%
COc1ccc(S(=O)(=O)Nc2cccc(S(=O)(=O)N3CCCCCC3)c2)cc1 | inactive: 15%
O=C(CCNC(=O)c1ccccc1Cl)Nc1nc2ccccc2[nH]1 | inactive: 3.32%
O=C(CN(c1ccc(Cl)cc1)S(=O)(=O)c1ccc(Cl)c([N+](=O)[O-])c1)NCCc1ccc(F)cc1 | inactive: 1.43%
O=C(CCc1ccccc1)Nc1ccc(S(=O)(=O)NC2=NCCCCC2)cc1 | inactive: 0.728%
COc1ccc(Cc2nc3ccc(C(=O)NCc4cc(C)no4)cc3o2)cc1 | inactive: 15.1%
CN(C(=O)COC(=O)C1CCN(S(=O)(=O)c2ccc(Cl)cc2)CC1)C1CCS(=O)(=O)C1 (configuration not stated) | inactive: 5.36%
CN1C2CC(OC(=O)C(CO)c3ccccc3)CC1C1OC12 (configuration not stated) | inactive: 1.96%
Cc1cnc(C(=O)OCc2ccc(C#N)cc2)cn1 | inactive: 8.91%
CS(=O)(=O)N(Cc1ccc(C(=O)NC2CCCC2)cc1)c1ccccc1 | inactive: -4.98%
COc1ccc(-c2nc3ccc([N+](=O)[O-])cc3[nH]2)cc1 | inactive: 1.37%
COCCNC(=O)COC(=O)c1ccc(S(=O)(=O)N2CCOCC2)cc1 | inactive: 2.62%
Cc1ccc(NC(=S)N2CCC(NC(=O)c3ccc(C)cc3)CC2)cc1 | inactive: 10.2%
CSc1ccc(CCNC(=O)C2=C(C)C(=O)OC23CCCCC3)cc1 | inactive: 7.2%
O=C(C/C=N\O)Nc1ccc(Oc2ccccc2)cc1 | inactive: 1.91%
Cc1cccc(C(=O)N/C(=C\c2ccco2)C(=O)N2CCCCCC2)c1 | inactive: 0.875%
